{"source": "the supplement of paper PMC4604168 (melanoma cell lines)", "note": "The list shows a part of the results. Most values come without repeats; read them as rough.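 Also: cells treated in 1,536-well plates, then fixed and DAPI-stained, with nuclei counted from automated high-throughput microscope images.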"}
{"system": "WM115", "test": "cell count relative to DMSO control; higher = more viable cells", "details": "library dose: standard library concentration; 72 h", "units": {"cell count": "%"}}
{"smiles": "CC1(C)CCC(c2ccc(Cl)cc2)=C(CN2CCN(c3ccc(C(=O)NS(=O)(=O)c4ccc(N[C@H](CCN5CCOCC5)CSc5ccccc5)c(S(=O)(=O)C(F)(F)F)c4)cc3)CC2)C1", "note": "+ CCCCCCCCc1ccc(CCC(N)(CO)CO)cc1 [fingolimod] (first compound 2 µM, partner dose 10 µM)", "cell count": 13.2}
{"smiles": "CC1(C)CCC(c2ccc(Cl)cc2)=C(CN2CCN(c3ccc(C(=O)NS(=O)(=O)c4ccc(N[C@H](CCN5CCOCC5)CSc5ccccc5)c(S(=O)(=O)C(F)(F)F)c4)cc3)CC2)C1", "note": "+ O=S(=O)(c1ccccc1)N(CC(F)(F)F)c1ccc(C(O)(C(F)(F)F)C(F)(F)F)cc1 [T0901317] (first compound 2 µM, partner dose 7 µM)", "cell count": 79}
{"smiles": "O=C(/C=C/c1cccnc1)NCCCCC1CCN(C(=O)c2ccccc2)CC1", "note": "+ CC(C)CCN1c2nc(Nc3cc(F)c(O)c(F)c3)ncc2N(C)C(=O)C1C [BID1870] (first compound 0.05 µM, partner dose 1 µM)", "cell count": 83}
{"smiles": "O=C(/C=C/c1cccnc1)NCCCCC1CCN(C(=O)c2ccccc2)CC1", "note": "+ Cc1cc([N+](=O)[O-])ccc1NS(=O)(=O)c1cc(Cl)ccc1Cl [FH535] (first compound 0.05 µM, partner dose 5 µM)", "cell count": 88.1}
{"smiles": "Cc1ccc(Nc2nccc(N(C)c3ccc4c(C)n(C)nc4c3)n2)cc1S(N)(=O)=O", "note": "[Pazopanib] + O=C(Nc1ccccc1)c1cc([N+](=O)[O-])ccc1Cl [GW9662] (first compound 2 µM, partner dose 10 µM)", "cell count": 80.3}
{"smiles": "Cc1ccc(Nc2nccc(N(C)c3ccc4c(C)n(C)nc4c3)n2)cc1S(N)(=O)=O", "note": "[Pazopanib] + COc1ccc(COc2ccc(Cc3cnc(N)nc3N)cc2OC)cc1 [GW2580] (first compound 2 µM, partner dose 5 µM)", "cell count": 79.8}
{"system": "WM1716", "test": "cell count relative to DMSO control; melanoma cells; higher = more viable cells", "details": "library dose: standard library concentration; 72 h", "units": {"cell count": "%"}}
{"smiles": "Cc1ccc(Nc2nccc(N(C)c3ccc4c(C)n(C)nc4c3)n2)cc1S(N)(=O)=O", "note": "[Pazopanib] + CC(C)CCN1c2nc(Nc3cc(F)c(O)c(F)c3)ncc2N(C)C(=O)C1C [BID1870] (first compound 2 µM, partner dose 1 µM)", "cell count": 77.8}
{"smiles": "Cc1ccc(Nc2nccc(N(C)c3ccc4c(C)n(C)nc4c3)n2)cc1S(N)(=O)=O", "note": "[Pazopanib] + CCc1ccc(CCOc2ccc(CC3SC(=O)NC3=O)cc2)nc1 [pioglitazone] (first compound 2 µM, partner dose 10 µM)", "cell count": 77.8}
{"smiles": "O=C(/C=C/c1cccnc1)NCCCCC1CCN(C(=O)c2ccccc2)CC1", "note": "+ O=C1NC(=O)/C(=C/c2ccc(-c3ccc(F)cc3O)o2)S1 [AS252424] (first compound 0.05 µM, partner dose 5 µM)", "cell count": 74.9}
{"smiles": "O=C(/C=C/c1cccnc1)NCCCCC1CCN(C(=O)c2ccccc2)CC1", "note": "+ COc1ccc2c(c1)CCC1C2CCC2(C)C(NCCCCCCN3C(=O)C=CC3=O)CCC12 [U73122] (first compound 0.05 µM, partner dose 2 µM)", "cell count": 63.9}
{"smiles": "O=C(/C=C/c1cccnc1)NCCCCC1CCN(C(=O)c2ccccc2)CC1", "note": "+ CCN(CC)CCCCNc1ncc2cc(-c3cc(OC)cc(OC)c3)c(NC(=O)NC(C)(C)C)nc2n1 [PD173074] (first compound 0.05 µM, partner dose 0.5 µM)", "cell count": 83.6}
{"smiles": "CC1(C)CCC(c2ccc(Cl)cc2)=C(CN2CCN(c3ccc(C(=O)NS(=O)(=O)c4ccc(N[C@H](CCN5CCOCC5)CSc5ccccc5)c(S(=O)(=O)C(F)(F)F)c4)cc3)CC2)C1", "note": "+ O=C1NC(=O)/C(=C/c2ccc(-c3ccc(F)cc3O)o2)S1 [AS252424] (first compound 2 µM, partner dose 5 µM)", "cell count": 60}
{"smiles": "Cc1ccc(Nc2nccc(N(C)c3ccc4c(C)n(C)nc4c3)n2)cc1S(N)(=O)=O", "note": "[Pazopanib] + Oc1cc(-c2nc(-c3ccccc3)[nH]c2-c2ccncc2)ccc1Cl [L779450] (first compound 2 µM, partner dose 1 µM)", "cell count": 68.1}
{"smiles": "CC1(C)CCC(c2ccc(Cl)cc2)=C(CN2CCN(c3ccc(C(=O)NS(=O)(=O)c4ccc(N[C@H](CCN5CCOCC5)CSc5ccccc5)c(S(=O)(=O)C(F)(F)F)c4)cc3)CC2)C1", "note": "+ COc1ccc2c(c1)CCC1C2CCC2(C)C(NCCCCCCN3C(=O)C=CC3=O)CCC12 [U73122] (first compound 2 µM, partner dose 2 µM)", "cell count": 35.3}
{"smiles": "Cc1ccc(Nc2nccc(N(C)c3ccc4c(C)n(C)nc4c3)n2)cc1S(N)(=O)=O", "note": "[Pazopanib] + O=C1NC(=O)/C(=C/c2ccc(-c3ccc(F)cc3O)o2)S1 [AS252424] (first compound 2 µM, partner dose 5 µM)", "cell count": 64.9}
{"smiles": "O=C(/C=C/c1cccnc1)NCCCCC1CCN(C(=O)c2ccccc2)CC1", "note": "+ O=c1cc(-c2cccc3c2Sc2ccccc2S3)oc(N2CCOCC2)c1 [KU55933] (first compound 0.05 µM, partner dose 5 µM)", "cell count": 75.5}
{"smiles": "Cc1ccc(Nc2nccc(N(C)c3ccc4c(C)n(C)nc4c3)n2)cc1S(N)(=O)=O", "note": "[Pazopanib] + N#Cc1c(O)c2c(-c3ccc(-c4ccccc4O)cc3)csc2[nH]c1=O [A769662] (first compound 2 µM, partner dose 10 µM)", "cell count": 89.8}
{"smiles": "O=C(/C=C/c1cccnc1)NCCCCC1CCN(C(=O)c2ccccc2)CC1", "note": "+ Oc1cc(-c2nc(-c3ccccc3)[nH]c2-c2ccncc2)ccc1Cl [L779450] (first compound 0.05 µM, partner dose 1 µM)", "cell count": 67.2}
{"smiles": "CC1(C)CCC(c2ccc(Cl)cc2)=C(CN2CCN(c3ccc(C(=O)NS(=O)(=O)c4ccc(N[C@H](CCN5CCOCC5)CSc5ccccc5)c(S(=O)(=O)C(F)(F)F)c4)cc3)CC2)C1", "note": "+ O=C(Nc1ccccc1)c1cc([N+](=O)[O-])ccc1Cl [GW9662] (first compound 2 µM, partner dose 10 µM)", "cell count": 41.7}
{"smiles": "CC1(C)CCC(c2ccc(Cl)cc2)=C(CN2CCN(c3ccc(C(=O)NS(=O)(=O)c4ccc(N[C@H](CCN5CCOCC5)CSc5ccccc5)c(S(=O)(=O)C(F)(F)F)c4)cc3)CC2)C1", "note": "+ Nc1nc(F)nc2c1ncn2[C@@H]1O[C@H](CO)[C@@H](O)[C@@H]1O [fludarabine] (first compound 2 µM, partner dose 1 µM)", "cell count": 54.5}
{"smiles": "CC1(C)CCC(c2ccc(Cl)cc2)=C(CN2CCN(c3ccc(C(=O)NS(=O)(=O)c4ccc(N[C@H](CCN5CCOCC5)CSc5ccccc5)c(S(=O)(=O)C(F)(F)F)c4)cc3)CC2)C1", "note": "+ CC(C)CCN1c2nc(Nc3cc(F)c(O)c(F)c3)ncc2N(C)C(=O)C1C [BID1870] (first compound 2 µM, partner dose 1 µM)", "cell count": 69.5}
{"smiles": "Cc1ccc(Nc2nccc(N(C)c3ccc4c(C)n(C)nc4c3)n2)cc1S(N)(=O)=O", "note": "[Pazopanib] + COc1ccc2c(c1)CCC1C2CCC2(C)C(NCCCCCCN3C(=O)C=CC3=O)CCC12 [U73122] (first compound 2 µM, partner dose 2 µM)", "cell count": 69.7}
{"smiles": "CC1(C)CCC(c2ccc(Cl)cc2)=C(CN2CCN(c3ccc(C(=O)NS(=O)(=O)c4ccc(N[C@H](CCN5CCOCC5)CSc5ccccc5)c(S(=O)(=O)C(F)(F)F)c4)cc3)CC2)C1", "note": "+ COc1ccc(-c2ccc3c(N4CCOCC4)nc(N4C[C@@H](C)O[C@@H](C)C4)nc3n2)cc1CO [KU0063794] (first compound 2 µM, partner dose 0.1 µM)", "cell count": 64.3}
{"smiles": "CC1(C)CCC(c2ccc(Cl)cc2)=C(CN2CCN(c3ccc(C(=O)NS(=O)(=O)c4ccc(N[C@H](CCN5CCOCC5)CSc5ccccc5)c(S(=O)(=O)C(F)(F)F)c4)cc3)CC2)C1", "note": "+ CCN(CC)CCCCNc1ncc2cc(-c3cc(OC)cc(OC)c3)c(NC(=O)NC(C)(C)C)nc2n1 [PD173074] (first compound 2 µM, partner dose 0.5 µM)", "cell count": 68.5}
{"smiles": "CC1(C)CCC(c2ccc(Cl)cc2)=C(CN2CCN(c3ccc(C(=O)NS(=O)(=O)c4ccc(N[C@H](CCN5CCOCC5)CSc5ccccc5)c(S(=O)(=O)C(F)(F)F)c4)cc3)CC2)C1", "note": "+ Oc1cc(-c2nc(-c3ccccc3)[nH]c2-c2ccncc2)ccc1Cl [L779450] (first compound 2 µM, partner dose 1 µM)", "cell count": 34.7}
{"smiles": "CC1(C)CCC(c2ccc(Cl)cc2)=C(CN2CCN(c3ccc(C(=O)NS(=O)(=O)c4ccc(N[C@H](CCN5CCOCC5)CSc5ccccc5)c(S(=O)(=O)C(F)(F)F)c4)cc3)CC2)C1", "note": "+ O=c1cc(-c2cccc3c2Sc2ccccc2S3)oc(N2CCOCC2)c1 [KU55933] (first compound 2 µM, partner dose 5 µM)", "cell count": 52}
{"smiles": "O=C(/C=C/c1cccnc1)NCCCCC1CCN(C(=O)c2ccccc2)CC1", "note": "+ c1cc(-c2cnn3cc(-c4ccc(OCCN5CCCCC5)cc4)cnc23)ccn1 [Dorsomorphin] (first compound 0.05 µM, partner dose 2 µM)", "cell count": 70}
{"smiles": "Cc1ccc(Nc2nccc(N(C)c3ccc4c(C)n(C)nc4c3)n2)cc1S(N)(=O)=O", "note": "[Pazopanib] + O=C(O)C(=O)Nc1sc2c(c1C(=O)O)CCNC2 [TCS401] (first compound 2 µM, partner dose 8.33333 µM)", "cell count": 68.5}
{"smiles": "Cc1ccc(Nc2nccc(N(C)c3ccc4c(C)n(C)nc4c3)n2)cc1S(N)(=O)=O", "note": "[Pazopanib] + COc1ccc(-c2ccc3c(N4CCOCC4)nc(N4C[C@@H](C)O[C@@H](C)C4)nc3n2)cc1CO [KU0063794] (first compound 2 µM, partner dose 0.1 µM)", "cell count": 80.4}
